In patent US10941208B2, “Anti-MUC16 antibodies” (Regeneron Pharmaceuticals, Inc., priority 2016, dated 2021):

Experiments:
[1] = target: T1, hMUC16 endogenously expressed on OVCAR-3 cell line (Homo sapiens, UniProt Q8WXI7); assay: Electrochemiluminescence (MSD) cell binding, OVCAR-3 vs SK-OV-3; details: cell-based binding assay
T1 construct: OVCAR-3 cells endogenously express MUC-16; endogenous in cells; host or cells: OVCAR-3 (also luciferase-transduced OVCAR3-Luc)
Protocol: The ability of anti-MUC16 antibodies to bind specifically to endogenously expressing MUC16 on the human ovarian carcinoma cell line (OVCAR-3) was evaluated via an electrochemiluminescence based detection assay (Meso Scale Discovery (MSD), Rockville, Md.). […] Detached cells were then washed once in 1×PBS supplemented with Ca^2+/Mg^2+ and counted (Cellometer Auto T4 cell counter, Nexcelom Bioscience, Lawrence, Mass.). Approximately 1.0×10^4 cells were plated in MULTI-ARRAY 96-well carbon electrode plates (MSD) and incubated for 1 h at 37° C. […] Next, serial dilutions of anti-MUC16 or control antibodies (0.85 pM-50 nM) and no-antibody buffer controls were added to the plate-bound cells and incubated for 1 h at room temperature (RT). […] Plate-bound antibodies were detected with a SULFO-TAG™-conjugated anti-human kappa light chain antibody (Regeneron) or a SULFO-TAG™-conjugated anti-mouse IgG antibody (Jackson Immunoresearch, West Grove, Pa.) for 1 h at RT. Post-wash, plates were developed with Read Buffer (MSD) according to manufacturer's protocol and luminescent signals were recorded with a SECTOR Imager 6000 (MSD) instrument.
Luminescence intensity, measured in relative light units (RLU), for the two cell lines was recorded to indicate the binding intensity of each antibody.

[2] = target: T2, soluble monomeric human MUC16 (hMUC16.mmh, last five SEA domains, SEQ ID: 1902) (Homo sapiens, UniProt Q8WXI7); assay: Surface plasmon resonance (BIACORE) binding to hMUC16 fragment at 25° C.; parameters: key to ka / kd / KD / t 1/2: NB: No binding; details: for KD / ka / kd / t 1/2: Hybridoma anti-MUC16 antibodies (H1M, H2M, H3M), 25° C., Table 5A; for binding to soluble truncated human MUC16 protein via surface plasmon resonance (in words): truncated format encompassing the last five SEA domains
T2 construct: mmh (myc-myc-hexahistidine)
T2 sequence (Q8WXI7 with tags, fused parts or gaps): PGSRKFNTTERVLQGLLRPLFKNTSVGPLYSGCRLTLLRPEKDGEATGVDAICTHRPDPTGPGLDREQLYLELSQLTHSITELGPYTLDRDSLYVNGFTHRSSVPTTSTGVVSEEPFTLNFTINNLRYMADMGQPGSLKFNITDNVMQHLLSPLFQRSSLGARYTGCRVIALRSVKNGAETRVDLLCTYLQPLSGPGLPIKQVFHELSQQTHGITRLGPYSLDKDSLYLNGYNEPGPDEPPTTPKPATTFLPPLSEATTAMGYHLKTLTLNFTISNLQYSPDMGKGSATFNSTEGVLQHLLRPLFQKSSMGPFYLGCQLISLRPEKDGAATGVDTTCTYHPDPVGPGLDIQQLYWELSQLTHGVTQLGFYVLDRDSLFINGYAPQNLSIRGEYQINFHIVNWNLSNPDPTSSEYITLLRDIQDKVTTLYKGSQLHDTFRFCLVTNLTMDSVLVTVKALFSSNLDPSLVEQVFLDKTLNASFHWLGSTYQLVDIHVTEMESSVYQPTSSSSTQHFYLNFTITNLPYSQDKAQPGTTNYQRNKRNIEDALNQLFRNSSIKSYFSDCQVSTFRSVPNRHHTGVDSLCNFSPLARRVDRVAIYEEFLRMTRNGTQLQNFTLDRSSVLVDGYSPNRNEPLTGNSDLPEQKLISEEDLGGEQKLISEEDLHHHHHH

Molecule	specific binding to endogenous human MUC16 expressed on OVCAR-3 cells (in words) [1]	KD [2]	ka [2]	kd [2]	t 1/2 [2]	binding to soluble truncated human MUC16 protein via surface plasmon resonance (in words) [2]
H3M9524N: anti-MUC16 hybridoma antibody, mIgG3; HCVR/LCVR SEQ ID NOs: 346/354 (antibody, V domains shown) VH: QVQLQQWGAGLLKPSETLSLTCAVYGGSFSDYYWSWIRQPPGKGLEWIGEINHRGKTNYNPSLKSRVSISVDPSKNQFSLKLSSVTAADTAVYYCARQGWNYAIFDYWGQGILVPVSS VL: DIVMTQSPDSLAVSLGERATINCKSSQSVLYRSNNKNYLGWYQQKPGQPPKLLIYWASSREAGVPDRFSGSGSGTEFTLTISSLQAEDEAVYYCQQYYSSPPTFGQGTKVEIK	specific binding	NB	NB	NB	NB	no binding
H3M9525N: anti-MUC16 hybridoma antibody, mIgG3; HCVR/LCVR SEQ ID NOs: 362/370 (antibody, V domains shown) VH: QVQLQQWGAGLLKPSETLSLTCAVYGGSFSGYYWSWIRQPPGKGLEWIGEINHSGKTTYSPSLKSRVTISVDTSKSQFSLKLSSVTAADTAVYYCARQGLNYAIFDYWGQGTLVTVSS VL: YIVMTQSPDSLAVSLGERATINCKSSRSILYTSNNKNYLAWYQQRPGQPPKLLIYWASTRESGVPDRFSGSGSGTDFTLTISSLQAEDVAVYYCQQYFSSPPTFGQGTKVEIK	specific binding	NB	NB	NB	NB	no binding
